Experimental data published in US20210130473A1, “TGFßR1 INHIBITOR-ASGR ANTIBODY CONJUGATES AND USES THEREOF” (Silverback Therapeutics, Inc., priority 2019, published 2021).

T1: human ASGR1 extracellular domain (ECD) (Homo sapiens, UniProt P07306)
T1 sequence (P07306 62-291 limits assumed): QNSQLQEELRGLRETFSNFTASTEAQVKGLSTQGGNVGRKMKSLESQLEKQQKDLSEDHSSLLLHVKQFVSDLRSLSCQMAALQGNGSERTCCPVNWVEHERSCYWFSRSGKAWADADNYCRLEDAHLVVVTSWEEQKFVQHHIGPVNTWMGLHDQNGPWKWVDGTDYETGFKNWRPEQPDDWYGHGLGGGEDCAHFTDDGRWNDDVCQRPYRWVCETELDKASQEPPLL

T2: HepG2 cells (which express ASGR1) (Homo sapiens, UniProt P07306)
T2 construct: endogenous in cells; host or cells: HepG2
T2 sequence (P07306 1-291): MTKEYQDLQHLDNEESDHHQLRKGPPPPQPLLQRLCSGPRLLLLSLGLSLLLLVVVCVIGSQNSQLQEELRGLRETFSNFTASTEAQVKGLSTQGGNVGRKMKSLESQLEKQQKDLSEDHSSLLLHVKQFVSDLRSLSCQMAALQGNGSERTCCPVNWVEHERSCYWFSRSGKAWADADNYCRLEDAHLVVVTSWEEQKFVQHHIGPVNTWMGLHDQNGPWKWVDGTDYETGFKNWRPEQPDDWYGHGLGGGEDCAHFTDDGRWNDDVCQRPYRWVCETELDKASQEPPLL


How the values were obtained:
[1] = biological target: T1, human ASGR1 extracellular domain (ECD); assay: Effect of calcium on anti-ASGR1 binding and dissociation (OCTET Red 96, Penta-His biosensors); parameters: key to Ca2+ sensitivity during association / Ca2+ sensitivity during dissociation / Ca2+ Sensitivity: N = No; Y = Yes; conditions: for calcium sensitivity of binding to human ASGR1 ECD: sensitive: difference in binding signal after dissociation with vs without calcium >±10%
Method: The ability of anti-human ASGR1 antibodies of this disclosure to bind to human ASGR1 in the presence or absence of calcium in binding buffer was examined. Briefly, ASGR1 antibodies were bound to immobilized human ASGR1 extracellular domain (ECD) at saturating levels and subsequently dissociated under three different conditions as follows: (a) binding and dissociation with buffer containing calcium (PBS+1% BSA+0.2% Tween20+0.9 mM CaCl2), pH 7.4); (b) binding with buffer containing calcium and dissociation with buffer lacking calcium; and (c) binding and dissociation with buffer lacking calcium. Analysis of ASGR1 antibody binding to human ASGR1 ECD was performed using the OCTET® Red 96 instrument and analyzed using the OCTET®Data Analysis Software 9.0 (ForteBio). His-tagged human ASGR1 ECD was immobilized to OCTET® Penta-His biosensors and ASGR1 antibodies were subjected to avidity binding under the conditions described above. Association with the ASGR1 ECD was measured by the rate of and increase in magnitude of signal response at a given antibody concentration. Dissociation from the ASGR1 ECD was measured the rate of loss in signal upon removal of the antibody and further incubation with or without Ca^2+. […] Also tested were humanized antibodies hzH8K-1 and hzL4L-7.
Further analysis of the antibodies of this disclosure was to determine whether the presence of calcium was needed for binding (i.e., during association) of the antibodies to human ASGR1 ECD. […]

[2] = biological target: T2, HepG2 cells (which express ASGR1); assay: Guava HepG2 cell binding screen of anti-ASGR1 mAbs; conditions: humanized G2D clones; two numbers per cell, their meaning is not given

Molecule	calcium sensitivity of binding to human ASGR1 ECD [1]	Guava HepG2 Screen [2]	also measured
chG2D: "Chimeric antibodies were chG2D (heavy chain SEQ ID NO:150; light chain SEQ ID NO:206)" (antibody, Synthetic sequence chG2D Heavy Chain; Synthetic sequence chG2D Light Chain) heavy: EVQLQQSGPELVKPGASVKISCKASGYSFTGYYMHWVKQSHVKSLEWIGRINPNNGATNYNQNFKDKASLTVDKSSSTAYMEFHSLTSEDSAVYYCTSVNFYYWGQGTTLTVSS[… human IgG1 constant region …] light: DIKMTQSPSSMYASLGERVTITCKASQVINSYLSWFQQKPGKSPETLIYRANTLVDGVPSRFSGSGSGQDYSLTISSLEYEDLGIYYCLQYAEFPYTFGGGTKLEIKRTVAAPSVFIFPPSDEQLKSGTASVVCLLNNFYPREAKVQWKVDNALQSGNSQESVTEQDSKDSTYSLSSTLTLSKADYEKHKVYACEVTHQGLSSPVTKSFNRGEC	lacking sensitivity to calcium		Ca2+ sensitivity during association ([1]; binding to human ASGR1 ECD with or without calcium, OCTET): Y; Ca2+ sensitivity during dissociation ([1]; dissociation from human ASGR1 ECD with or without calcium, OCTET): N; Ca2+ Sensitivity ([1]; overall summary column): Y
chH8K: "Chimeric antibodies were ... chH8K (heavy chain SEQ ID NO:153; light chain SEQ ID NO:209)" (antibody, Synthetic sequence chH8K Heavy Chain; Synthetic sequence chH8K Light Chain) heavy: DVQLQESGPGLVKPSQSLSLTCTVTGFSITSDYAWNWIRQFPGNQLEWMGYRSYRGSTSYNPSLKSRISITRDTSKNQFFLQLNSVTTEDTATYYCARRGYYGSSSHWYFDVWGAGTTVTVSS[… human IgG1 constant region …] light: DIQMTQSPASLSASVGETVTITCRASENIYSYLAWYQQKQGKSPQLLVYNAKTLAEGVPSRFSGSGSGTQFSLKINSLQPEDFGSYYCQHHYGTPLTFGSGTKLELKRTVAAPSVFIFPPSDEQLKSGTASVVCLLNNFYPREAKVQWKVDNALQSGNSQESVTEQDSKDSTYSLSSTLTLSKADYEKHKVYACEVTHQGLSSPVTKSFNRGEC	lacking sensitivity to calcium		
hzG2D-1: humanized G2D clone; VL "grafted into the human germline sequence VKI-L1 with JK4 to generate hzG2D VLa (SEQ ID NO:131)" (antibody) heavy: QVQLVQSGAEVKKPGASVKVSCKASGYTFTGYYMHWVRQAPGQRLEWMGRINPNNGATNYNQNFKDRVTITRDTSASTAYMELSSLRSEDTAVYYCARVNFYYWGQGTTLTVSS[… human IgG1 constant region …] light: DIQMTQSPSSLSASVGDRVTITCKASQVINSYLSWFQQKPGKAPKSLIYRANTLVDGVPSRFSGSGSGTDFTLTISSLQPEDFATYYCLQYAEFPYTFGGGTKVEIKRTVAAPSVFIFPPSDEQLKSGTASVVCLLNNFYPREAKVQWKVDNALQSGNSQESVTEQDSKDSTYSLSSTLTLSKADYEKHKVYACEVTHQGLSSPVTKSFNRGEC		32/19	

Now from value to molecule, other results behind:

calcium sensitivity of binding to human ASGR1 ECD [1]	Guava HepG2 Screen [2]	Molecule	also measured
	None	hzG2D-24: humanized G2D clone; VL "grafted into the human germline sequence VKI-A20 with JK4 to generate hzG2D VLc (SEQ ID NO:249)" (antibody) heavy: QVQLVQSGAEVKKPGASVKVSCKASGYTFTGYYMHWVRQAPGQRLEWMGRINPNNGATNYNQNFKDKASLTVDTSASTAYMELSSLRSEDTAVYYCARVNFYYWGQGTTVTVSS[… human IgG1 constant region …] light: DIQMTQSPSSLSASVGDRVTITCKASQVINSYLSWYQQKPGKVPKLLIYRANTLVDGVPSRFSGSGSGTDFTLTISSLQPEDVATYYCLQYAEFPYTFGGGTKVEIKRTVAAPSVFIFPPSDEQLKSGTASVVCLLNNFYPREAKVQWKVDNALQSGNSQESVTEQDSKDSTYSLSSTLTLSKADYEKHKVYACEVTHQGLSSPVTKSFNRGEC	
	None	hzG2D-25: humanized G2D clone; VL "grafted into the human germline sequence VKI-A20 with JK4 to generate hzG2D VLc (SEQ ID NO:249)" (antibody) heavy: QVQLVQSGAEVKKPGASVKVSCKASGYTFTGYYMHWVRQAPGQRLEWMGRINPNNGATNYNQNFKDKASLTVDTSASTAYMELSSLRSEDTAVYYCTSVNFYYWGQGTTVTVSS[… human IgG1 constant region …] light: DIQMTQSPSSLSASVGDRVTITCKASQVINSYLSWYQQKPGKVPKLLIYRANTLVDGVPSRFSGSGSGTDFTLTISSLQPEDVATYYCLQYAEFPYTFGGGTKVEIKRTVAAPSVFIFPPSDEQLKSGTASVVCLLNNFYPREAKVQWKVDNALQSGNSQESVTEQDSKDSTYSLSSTLTLSKADYEKHKVYACEVTHQGLSSPVTKSFNRGEC	
